PubChem BioAssay (Tox21)
Values joined by “and” are separate entries in the source; they are usually repeats but may differ in a detail not shown here. Equal entries are not always repeated. This list was built around the results that the source calls inconclusive (neither active nor inactive); the mix of calls is not that of the screen. A call without a number means that no potency is given here. Potencies beside an inconclusive call are fits to weak or partial responses and may not hold up. Active and inactive are the calls of the source. Calls follow the shape of the dose curve; as a rule, active = well fitted activation curve with a large enough effect in the repeat runs; inconclusive = weak or mixed curves; inactive = no such curve, though single readings can be large or run the other way.

Biological target: Aryl hydrocarbon receptor (Homo sapiens) (UniProt P35869)
UniProt P35869, sequence (P35869 whole entry, looked up): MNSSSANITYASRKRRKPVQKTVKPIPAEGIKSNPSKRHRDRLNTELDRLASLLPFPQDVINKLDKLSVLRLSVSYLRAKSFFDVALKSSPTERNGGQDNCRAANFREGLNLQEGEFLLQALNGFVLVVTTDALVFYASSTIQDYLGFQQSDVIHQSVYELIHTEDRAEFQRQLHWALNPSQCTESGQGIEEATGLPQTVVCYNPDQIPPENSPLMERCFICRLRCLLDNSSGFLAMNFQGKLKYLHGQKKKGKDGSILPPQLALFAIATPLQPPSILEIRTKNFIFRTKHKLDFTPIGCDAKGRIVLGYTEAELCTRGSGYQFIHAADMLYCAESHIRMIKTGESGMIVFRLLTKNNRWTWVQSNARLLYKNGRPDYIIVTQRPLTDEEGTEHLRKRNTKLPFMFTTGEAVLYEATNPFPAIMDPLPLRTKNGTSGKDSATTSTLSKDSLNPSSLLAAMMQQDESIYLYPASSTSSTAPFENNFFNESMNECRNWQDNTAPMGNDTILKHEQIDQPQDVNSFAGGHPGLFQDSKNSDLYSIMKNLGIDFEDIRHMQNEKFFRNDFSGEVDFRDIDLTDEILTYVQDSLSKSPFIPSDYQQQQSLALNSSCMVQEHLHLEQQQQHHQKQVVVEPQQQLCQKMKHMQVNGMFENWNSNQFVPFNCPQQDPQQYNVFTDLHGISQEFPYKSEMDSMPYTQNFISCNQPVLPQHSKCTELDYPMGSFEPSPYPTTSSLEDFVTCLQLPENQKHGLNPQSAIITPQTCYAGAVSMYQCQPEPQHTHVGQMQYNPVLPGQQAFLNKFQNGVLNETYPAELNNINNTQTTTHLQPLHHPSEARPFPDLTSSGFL
Assay: qHTS assay to identify small molecule that activate the aryl hydrocarbon receptor (AhR) signaling pathway (AID 743085); also: nearly all actives have a fitted effect of over 15% in size
Conditions: HepG2 AhR-luc (HG2L7.5c1), luciferase, 24 h; series mostly up to 70.3 µM; activation: at the top concentration
Method in brief: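 Stably transfected human liver carcinoma cells (HG2L7.5c1; 20 DRE-firefly luciferase) were incubated 5 h, dosed, and kept 24 h at 37C. Agonism was scored from increased luciferase luminescence.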
Potency is read from the fitted curve at half-maximal effect; tags tell the direction and shape of the fitted curve.

**Q.** Nc1cc(Cl)c([N+](=O)[O-])cc1O was tested. Which Potency did it give?
**A.** inconclusive: 21.5 µM [activator, partial curve, poor fit]

**Q.** With CC(=O)Nc1ccc(C(=O)O)cc1 as the compound, how does the Potency read?
**A.** inactive

**Q.** For CCCCCCCCCC, which Potency is on record?
**A.** inactive

**Q.** For Nc1ccc(O)c(C(=O)O)c1, which Potency is on record?
**A.** inactive

**Q.** With CN(C)c1cccc(O)c1 as the compound, how does the Potency read?
**A.** active: 15.6 µM and active: 30.6 µM

**Q.** For CCN(CC)CCOC(=O)C1(C2CCCCC2)CCCCC1, which “activation” value is on record?
**A.** inactive: 6.52%
